For 153 variants, enrichment ratio results are on record in a collection of fitness landscapes (doi:10.1126/science.1257360).

The chains are these.
B1: PhoQ; a variant is named by its letters at X, in order, P23837 (parent)
chain: MKKLLRLFFPLSLRVRFLLATAAVVLVLSLAYGMVALIGYSVSFDKTTFRLLRGESNLFYTLAKWENNKLHVELPENIDKQSPTMTLIYDENGQLLWAQRDVPWLMKMIQPDWLKSNGFHEIEADVNDTSLLLSGDHSIQQQLQEVREDDDDAEMTHSVAVNVYPATSRMPKLTIVVVDTIPVELKSSYMVWSWFIYVLSANLLLVIPLLWVAAWWSLRPIEALAKEVRELEEHNRELLNPATTRELTSLVRNLNRLLKSERERYDKYRTTLTDLTHSLKTPLXXLQXXLRSLRSEKMSVSDAEPVMLEQISRISQQIGYYLHRASMRGGTLLSRELHPVAPLLDNLTSALNKVYQRKGVNISLDISPEISFVGEQNDFVEVMGNVLDNACKYCLEFVEISARQTDEHLYIVVEDDGPGIPLSKREVIFDRGQRVDTLRPGQGVGLAVAREITEQYEGKIVAGESMLGGARMEVIFGRQHSAPKDE

The list shows a part of the results.

In this experiment the parent is B1. Put plainly: enrichment ratio after two sorts for PhoP signalling (ratio (wild type AVST 3.29)); higher = more functional. To be noted: with PhoP (E. coli).
Turning to HCDN, the enrichment ratio was not above 0.25.
As to KHKR, the enrichment ratio was not above 0.25.
Under FKWH stands not above 0.25; under IIFD, not above 0.25.
For AILV, the enrichment ratio is 5.12.
For the variant FCNG, the enrichment ratio was not above 0.25.
With EFRC, the enrichment ratio was not above 0.25.
Under AQGT stands 3.18.
In the case of NAMT, the enrichment ratio is not above 0.25.
Under GSIG stands 2.91.
For the variant PTIH, the enrichment ratio was not above 0.25.
The value for SKPL was not above 0.25.
The value for QGWK was not above 0.25; that for EYEP was not above 0.25; that for VADE was not above 0.25.
The value for YKEN was not above 0.25; that for SFED was not above 0.25.
Consider ALVI, for which the enrichment ratio worked out at 5.22.
Under DIMA stands 0.361; under QSNN, not above 0.25.
Under NRSC stands not above 0.25.
Under AYSG stands 0.64; under HCYI, not above 0.25.
Consider PFTQ, for which the enrichment ratio was not above 0.25.
In the case of DSRH, the enrichment ratio is not above 0.25.
Regarding SANN, the enrichment ratio was not above 0.25.
The value for TYRE was not above 0.25.
HYSF: the enrichment ratio is not above 0.25.
As for WLTV, the enrichment ratio is not above 0.25.
As for DNPN, the enrichment ratio is not above 0.25.
Consider TEMY, for which the enrichment ratio amounted to 12.3.
Under SAIY stands 0.848; under RNYC, not above 0.25; under KDRT, not above 0.25.
For the variant VKLF, the enrichment ratio was not above 0.25.
The value for PVAT was not above 0.25; that for RLLL was not above 0.25.
The value for YFDS was not above 0.25; that for NWRN was not above 0.25.
On to FDRR, for which the enrichment ratio is not above 0.25.
Regarding VRYW, the enrichment ratio is not above 0.25.
For the variant QFNW, the enrichment ratio is not above 0.25.
For HDRN, the enrichment ratio is not above 0.25.
Under KKVT stands not above 0.25.
Under RPTD stands not above 0.25; under WDDM, not above 0.25; under PQHS, not above 0.25.
In the case of VWNN, the enrichment ratio is not above 0.25.
On to QCNR, for which the enrichment ratio was not above 0.25.
With DDLT, the enrichment ratio is not above 0.25.
For QICL, the enrichment ratio is not above 0.25.
Regarding QMPV, the enrichment ratio is not above 0.25.
Under LSYT stands not above 0.25; under MVDS, not above 0.25.
The value for TSRW was not above 0.25; that for KLFE was not above 0.25.
Under HESR stands not above 0.25; under DARM, not above 0.25.
On to IAAT, for which the enrichment ratio is not above 0.25.
Under VLLL stands 0.518; under DMRS, not above 0.25.
Under HCRL stands not above 0.25; under LVHQ, not above 0.25; under RAWF, not above 0.25.
AYRD: the enrichment ratio is not above 0.25.
ETSH: the enrichment ratio is not above 0.25.
The value for VSRD was not above 0.25.
Under FCDK stands not above 0.25; under NKGM, not above 0.25.
The value for RFQQ was not above 0.25; that for WIYM was not above 0.25.
For AEWN, the enrichment ratio was not above 0.25.
Turning to KERH, the enrichment ratio was not above 0.25.
For the variant KNPF, the enrichment ratio was not above 0.25.
Take YKGN: the enrichment ratio was not above 0.25.
The value for ICGV was not above 0.25.
The value for FMKC was not above 0.25.
TQRG: the enrichment ratio is not above 0.25.
As to EAWI, the enrichment ratio was not above 0.25.
NNQW: the enrichment ratio is not above 0.25.
As to FPRY, the enrichment ratio is not above 0.25.
The value for FWHP was not above 0.25; that for PHNT was not above 0.25; that for QKKP was not above 0.25.
Under FCFF stands not above 0.25; under MMVW, not above 0.25; under MYNK, not above 0.25.
The value for NCPY was not above 0.25; that for IAVK was not above 0.25; that for EPSV was not above 0.25.
Regarding MKFQ, the enrichment ratio is not above 0.25.
For the variant FWNE, the enrichment ratio was not above 0.25.
Regarding HSVI, the enrichment ratio is not above 0.25.
On to EYGC, for which the enrichment ratio is not above 0.25.
The value for SRMV was not above 0.25; that for AMCW was not above 0.25; that for YDFK was not above 0.25.
Under GNPI stands not above 0.25; under KSRT, not above 0.25; under LLQH, not above 0.25.
The value for TRFD was not above 0.25.
For the variant IMKV, the enrichment ratio was not above 0.25.
The value for TPLG was not above 0.25.
The value for IVYY was not above 0.25.
As for WQSS, the enrichment ratio amounted to 0.334.
Turning to MNYA, the enrichment ratio is not above 0.25.
Under HMSY stands not above 0.25; under QDND, not above 0.25; under IEGM, not above 0.25.
The value for VEIV was not above 0.25; that for YRDD was not above 0.25.
Under YRWA stands not above 0.25.
For the variant HLFK, the enrichment ratio was determined as 0.925.
For the variant VAAI, the enrichment ratio was not above 0.25.
For YYMR, the enrichment ratio is not above 0.25.
As to LPCI, the enrichment ratio was not above 0.25.
EYNY: the enrichment ratio is not above 0.25.
In the case of QTAP, the enrichment ratio was not above 0.25.
The value for NCNM was not above 0.25; that for DLKG was not above 0.25; that for THHL was 2.02.
Take KVYF: the enrichment ratio is not above 0.25.
The value for AWMF was not above 0.25; that for MTES was not above 0.25.
The value for RLFA was not above 0.25.
Under MNYL stands 12.
In the case of KEDA, the enrichment ratio is not above 0.25.
Consider NQHT, for which the enrichment ratio was not above 0.25.
In the case of AYSV, the enrichment ratio was not above 0.25.
The value for RTVC was not above 0.25.
The value for HRMP was not above 0.25; that for KESY was not above 0.25.
Under NVKT stands not above 0.25; under YEFS, not above 0.25; under WNTW, not above 0.25.
As for HKTK, the enrichment ratio was not above 0.25.
Under FQTF stands not above 0.25; under AFIL, not above 0.25; under MQNV, not above 0.25.
In the case of AMPW, the enrichment ratio was not above 0.25.
As for MHGH, the enrichment ratio was not above 0.25.
Regarding FDDG, the enrichment ratio was not above 0.25.
Regarding INIF, the enrichment ratio was not above 0.25.
The value for ISVM was not above 0.25; that for WVTV was not above 0.25.
In the case of GHEF, the enrichment ratio is not above 0.25.
For RMHW, the enrichment ratio is not above 0.25.
Turning to RSHP, the enrichment ratio was not above 0.25.
On to WYPR, for which the enrichment ratio is not above 0.25.
In the case of TNQF, the enrichment ratio stood at 1.81.
As to ERHQ, the enrichment ratio was not above 0.25.
Under YCFG stands not above 0.25; under YRKC, not above 0.25.
